US5124150A

Test system: human T-lymphotropic virus type III B (HTLV-IIIB)
Experiment: HIV-induced cell damage in MT-4 cells, trypan blue dye exclusion
Conditions: multiplicity of infection 0.002, concentration higher than 25 μg/ml
Experimental: Anti-HIV activity was evaluated using the human T-lymphotropic virus type III B (HTLV-IIIB) and HTLV-type I carrying, MT-4 cells. The number of viable MT-4 cells infected with HIV at a multiplicity of infection of 0.002, decreased during the cultivation and almost all cells died within 6 days after infection as determined by a trypan blue dye exclusion method (Antimicrob. Agents and Chemother. 30 933-37, 1986).

In the case of `C/C1=C\C=C\C2(C)C=C(CO[C@H]3O[C@H](CO)[C@H](O)[C@H](O)[C@H]3O)C(C)CC23OC(O)C(C3=O)C(O)/C=C/C2(C)C=C(C=O)C(C)CC23OC(O)C(C3=O)C(O)/C(C)=C/C=C/C2C=C(CO[C@H]3O[C@H](CO)[C@H](O)[C@H](O)[C@H]3O)C(C)CC23OC(O)C(C3=O)C(O)/C=C/C2(C)C=C(C=O)C(C)CC23OC(O)C(C3=O)C1O` (stereo partly shown), the “cell damage induced by HIV” value is reported as “significantly inhibited”.
